The other results are listed elsewhere or left out.

One assay has as its system HSkMC. Put plainly: cytotoxicity call (relative viability < 0.9). The conditions noted are these: 10 µM.
Another assay relates to HepG2. Put plainly: cytotoxicity call (relative viability < 0.9). As to conditions: 10 µM.
Another assay concerns S. aureus RN4220. Put plainly: growth inhibition call (relative growth <= 0.2). As to conditions: 50 µM.

`C[C@H]1CCCCO[C@H](CN(C)CC2CCCCC2)[C@@H](C)CN([C@@H](C)CO)C(=O)c2cc(NC(=O)Nc3cccc4ccccc34)ccc2O1`: the cytotoxicity call in the assay with HSkMC and in the assay on HepG2 was “active” throughout. In the assay with S. aureus RN4220, the growth inhibition call was “inactive”.

Consider `C[C@@H]1CCCCO[C@@H](CN(C)Cc2ccc(Cl)c(Cl)c2)[C@@H](C)CN([C@@H](C)CO)C(=O)c2cc(NC(=O)C3CCCCC3)ccc2O1`, for which the cytotoxicity call in the assay on HSkMC and in the assay with HepG2 was “inactive” each time. For the same compound, the growth inhibition call in the assay with S. aureus RN4220 is “inactive”.

For the compound `COc1cccc(C#Cc2cnc3c(c2)C(=O)N([C@@H](C)CO)C[C@@H](C)[C@H](CN(C)C(=O)C2CCOCC2)O3)c1`, the cytotoxicity call in the assay on HSkMC and in the assay with HepG2 was “inactive” each time. Besides, in the assay on S. aureus RN4220, the growth inhibition call was “inactive”.

For the compound `CCN(CC)CCNC(C(=O)OCCC(C)C)c1ccccc1.Cl.Cl` (stereo not drawn), the cytotoxicity call in the assay on HSkMC and in the assay on HepG2 was “inactive” in each case. Moreover, the growth inhibition call in the assay with S. aureus RN4220 is “inactive”.

For the compound `COc1ccc(S(=O)(=O)Nc2ccc3c(c2)C(=O)N([C@H](C)CO)C[C@H](C)[C@H](CN(C)S(=O)(=O)c2ccc(OC)cc2)O3)cc1`, the cytotoxicity call in the assay on HSkMC and with HepG2 was “inactive” throughout. In addition, in the assay with S. aureus RN4220, the growth inhibition call is “inactive”.

For `COCC#Cc1ccc2c(c1)O[C@H](CN(C)C(=O)COC)[C@H](C)CN([C@@H](C)CO)S2(=O)=O`, the cytotoxicity call in the assay on HSkMC and with HepG2 was “inactive” each time. In addition, the growth inhibition call in the assay on S. aureus RN4220 is “inactive”.

On to `Cc1nn(C)cc1NC(=O)C[C@H]1CC[C@@H]2[C@@H](COc3ccc(NC(=O)C4CCOCC4)cc3C(=O)N2C)O1`, for which the cytotoxicity call in the assay on HSkMC and in the assay on HepG2 was “inactive” in each case. Moreover, the growth inhibition call with S. aureus RN4220 is “inactive”.

For the compound `C[C@@H]1CN([C@H](C)CO)C(=O)CCCn2nncc2CO[C@@H]1CN(C)C(=O)Nc1ccc(C(F)(F)F)cc1`, the cytotoxicity call with HSkMC and in the assay on HepG2 was “inactive” throughout. For the same compound, the growth inhibition call in the assay on S. aureus RN4220 was “inactive”.

For `C/C=C/c1cccc(-c2nc(C(=O)NCc3ccccc3)cc3c2[C@@H](CCO)N([S@](=O)C(C)(C)C)C3)c1`, the cytotoxicity call in the assay with HSkMC and in the assay with HepG2 was “inactive” each time. The growth inhibition call with S. aureus RN4220 was “inactive”.

Take `CN1CCN(C(=O)C[C@@H]2C=C[C@@H](NC(=O)c3ccc4c(c3)OCO4)[C@H](CO)O2)CC1`: the cytotoxicity call in the assay with HSkMC and in the assay on HepG2 was “inactive” each time. In addition, the growth inhibition call in the assay on S. aureus RN4220 is “inactive”.

With `COc1ccc(S(=O)(=O)N(C)C[C@@H]2Oc3c(NS(C)(=O)=O)cccc3C(=O)N([C@@H](C)CO)C[C@@H]2C)cc1`, the cytotoxicity call in the assay on HSkMC and in the assay with HepG2 was “inactive” in each case. Besides, the growth inhibition call in the assay with S. aureus RN4220 was “inactive”.

Regarding `C[C@@H]1CN([C@H](C)CO)C(=O)c2cc(NC(=O)C3CCCCC3)ccc2O[C@@H](C)CCCCO[C@@H]1CN(C)Cc1ccncc1`, the cytotoxicity call in the assay with HSkMC and in the assay on HepG2 was “inactive” throughout. In the assay on S. aureus RN4220, the growth inhibition call was “inactive”.

Regarding `C[C@@H]1CN([C@H](C)CO)C(=O)c2cc(NS(=O)(=O)c3ccccc3)ccc2O[C@H]1CN(C)S(=O)(=O)c1cccs1`, the cytotoxicity call in the assay on HSkMC and in the assay with HepG2 was “inactive” throughout. Moreover, the growth inhibition call in the assay on S. aureus RN4220 is “inactive”.

Turning to `C[C@H]1CN([C@@H](C)CO)C(=O)c2cc(C#Cc3cccnc3)cnc2O[C@H]1CN(C)S(C)(=O)=O`, the cytotoxicity call in the assay with HSkMC and in the assay with HepG2 was “inactive” each time. The growth inhibition call in the assay on S. aureus RN4220 is “inactive”.

With `C[C@@H]1CN([C@H](C)CO)C(=O)c2cc(NC(=O)C3CCCCC3)ccc2O[C@@H]1CN(C)Cc1ccc(C(F)(F)F)cc1`, the cytotoxicity call in the assay on HSkMC and with HepG2 was “inactive” throughout. Besides, the growth inhibition call in the assay with S. aureus RN4220 is “inactive”.

On to `Cc1cc(C(=O)N2[C@@H]3CC[C@@H](C3)[C@H]2c2nc3cccc(OCc4ccc(F)cc4)c3[nH]2)n(C(C)(C)C)n1`, for which the cytotoxicity call in the assay on HSkMC and with HepG2 was “inactive” each time. The growth inhibition call with S. aureus RN4220 is “inactive”.

For the compound `Cc1nc2ccc([N+](=O)[O-])cc2s1`, the cytotoxicity call in the assay on HSkMC and in the assay with HepG2 was “inactive” throughout. In addition, the growth inhibition call in the assay with S. aureus RN4220 is “inactive”.

Turning to `N=C(N)NC(=O)c1nc(Cl)c(N)nc1N`, the cytotoxicity call in the assay with HSkMC and in the assay with HepG2 was “inactive” in each case. The growth inhibition call in the assay with S. aureus RN4220 is “inactive”.

As to `COc1ccc(C[C@@H]2c3cc(OC)c(OC)cc3CC[N@+]2(C)CCC(=O)OCCCCCOC(=O)CC[N@@+]2(C)CCc3cc(OC)c(OC)cc3[C@H]2Cc2ccc(OC)c(OC)c2)cc1OC`, the cytotoxicity call with HSkMC and in the assay with HepG2 was “active” each time. Besides, the growth inhibition call in the assay with S. aureus RN4220 is “inactive”.

On to `CC(C)NC(=O)Nc1ccc2c(c1)C(=O)N([C@H](C)CO)C[C@@H](C)[C@@H](CN(C)Cc1ccc(-c3ccccc3)cc1)O2`, for which the cytotoxicity call in the assay with HSkMC and with HepG2 was “inactive” throughout. In addition, in the assay on S. aureus RN4220, the growth inhibition call was “inactive”.

For `COc1ccc(NC(=O)Nc2ccc3c(c2)C(=O)N([C@@H](C)CO)C[C@H](C)[C@@H](CN(C)C(=O)Nc2ccc(F)cc2)OCCCC[C@H](C)O3)cc1`, the cytotoxicity call in the assay on HSkMC and in the assay on HepG2 was “inactive” each time. Moreover, the growth inhibition call in the assay on S. aureus RN4220 was “inactive”.

Consider `Br.Cc1ccc(Sc2ccccc2N2CCNCC2)c(C)c1`, for which the cytotoxicity call with HSkMC was “inactive”. Further, in the assay on HepG2, the cytotoxicity call is “active”. Also, the growth inhibition call in the assay with S. aureus RN4220 is “inactive”.

On to `C[C@@H]1CN([C@@H](C)CO)C(=O)Cc2cc(NS(=O)(=O)c3cn(C)cn3)ccc2O[C@@H]1CN(C)C(=O)Nc1ccccc1`, for which the cytotoxicity call in the assay with HSkMC and with HepG2 was “inactive” throughout. The growth inhibition call in the assay with S. aureus RN4220 is “inactive”.

`Cc1ccc(S(=O)(=O)Nc2ccc3c(c2)C(=O)N([C@H](C)CO)C[C@H](C)[C@H](CN(C)S(=O)(=O)c2ccccc2)O3)cc1`: the cytotoxicity call in the assay with HSkMC and in the assay on HepG2 was “inactive” in each case. Besides, the growth inhibition call in the assay on S. aureus RN4220 was “inactive”.

Regarding `Cc1noc(C)c1NC(=O)N(C)C[C@H]1OCCCC[C@@H](C)Oc2ccc(NS(=O)(=O)c3cccs3)cc2C(=O)N([C@@H](C)CO)C[C@H]1C`, the cytotoxicity call in the assay on HSkMC and in the assay with HepG2 was “inactive” in each case. The growth inhibition call with S. aureus RN4220 is “inactive”.

On to `O=C(C[C@H]1C[C@H]2c3cc(NC(=O)NC4CCCC4)ccc3O[C@H]2[C@H](CO)O1)NCc1ccc(Oc2ccccc2)cc1`, for which the cytotoxicity call with HSkMC is “inactive”. Also, the cytotoxicity call in the assay with HepG2 is “active”. For the same compound, the growth inhibition call in the assay with S. aureus RN4220 was “inactive”.

As for `COC(=O)[C@@H](Cc1ccc(-n2cc(C(=O)NO)nn2)cc1)N1CC2=CC(=O)[C@@H](C3CC3)[C@@H]2[C@H]1[C@H](O)Cc1ccccc1`, the cytotoxicity call with HSkMC and with HepG2 was “inactive” throughout. For the same compound, in the assay on S. aureus RN4220, the growth inhibition call was “inactive”.

Regarding `CCOC(=O)N[C@H]1CCS(=O)(=O)C1`, the cytotoxicity call with HSkMC and in the assay with HepG2 was “inactive” each time. Also, in the assay on S. aureus RN4220, the growth inhibition call was “inactive”.

For `CC(=O)Nc1cccc(O)c1`, the cytotoxicity call in the assay on HSkMC (human skeletal muscle cells) and with HepG2 was “inactive” throughout. Also, the growth inhibition call with S. aureus RN4220 is “inactive”.

For the compound `C[C@@H]1CN([C@@H](C)CO)C(=O)c2cccc(NC(=O)c3cnccn3)c2O[C@@H]1CN(C)C(=O)NC1CCCCC1`, the cytotoxicity call with HSkMC and in the assay on HepG2 was “inactive” throughout. Further, in the assay on S. aureus RN4220, the growth inhibition call was “inactive”.

Consider `COc1ccc(Cc2nn[nH]n2)cc1`, for which the cytotoxicity call with HSkMC and in the assay with HepG2 was “inactive” each time. Besides, the growth inhibition call with S. aureus RN4220 is “inactive”.

(Values after the antibiotic and cytotoxicity screens of Wong et al. (2023).)
